# Experimental data: US20250270341A1 (Alector, published 2025)
# T1: muCD98hc ECD Avi-His (mouse, UniProt P10852 100-526)
# T1 construct: biotinylated on the Avi tag where captured on streptavidin; also called Mouse CD98-AVI-His; Mouse CD98hc-AVI-His
# T1 sequence: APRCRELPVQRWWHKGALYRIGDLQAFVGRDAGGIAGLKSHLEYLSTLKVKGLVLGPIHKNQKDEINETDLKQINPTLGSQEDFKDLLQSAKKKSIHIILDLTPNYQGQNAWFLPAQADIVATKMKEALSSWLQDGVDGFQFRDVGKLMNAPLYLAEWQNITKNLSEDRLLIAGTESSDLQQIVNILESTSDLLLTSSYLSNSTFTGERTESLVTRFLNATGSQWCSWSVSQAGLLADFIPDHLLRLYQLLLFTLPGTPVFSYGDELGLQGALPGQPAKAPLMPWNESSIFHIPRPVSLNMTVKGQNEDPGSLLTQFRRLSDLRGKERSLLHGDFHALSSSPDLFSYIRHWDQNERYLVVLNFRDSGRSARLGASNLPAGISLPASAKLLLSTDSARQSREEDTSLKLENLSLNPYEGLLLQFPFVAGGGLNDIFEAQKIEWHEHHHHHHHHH
# T2: Full length mouse CD98hc on CHO cells (mouse, UniProt P10852 1-526)
# T2 construct: CHO cells stably overexpressing it; also called CHO-mouse CD98hc; CHO-mCD98hc
# T2 sequence: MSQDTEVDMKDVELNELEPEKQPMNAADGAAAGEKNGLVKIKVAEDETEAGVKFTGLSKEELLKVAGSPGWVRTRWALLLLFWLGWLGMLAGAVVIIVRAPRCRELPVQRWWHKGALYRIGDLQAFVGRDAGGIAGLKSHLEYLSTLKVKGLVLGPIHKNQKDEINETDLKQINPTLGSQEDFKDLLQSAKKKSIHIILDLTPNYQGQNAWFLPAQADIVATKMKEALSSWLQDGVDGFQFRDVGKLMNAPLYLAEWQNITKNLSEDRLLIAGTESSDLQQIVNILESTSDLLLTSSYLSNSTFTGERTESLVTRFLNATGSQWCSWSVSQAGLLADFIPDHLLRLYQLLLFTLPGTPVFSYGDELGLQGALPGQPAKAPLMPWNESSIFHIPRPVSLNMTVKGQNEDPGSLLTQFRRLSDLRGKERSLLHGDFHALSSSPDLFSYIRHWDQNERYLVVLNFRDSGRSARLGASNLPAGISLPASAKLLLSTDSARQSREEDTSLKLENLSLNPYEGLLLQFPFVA
# B1: CD98hc.04.047 (2+1 bispecific antibody) (bispecific antibody)
# heavy 1: EVRLLESGGGLVQPGGSLRLSCAASGFTFSNYAMGWVRQAPGKGLEWVSAISGSGGSTYYADSVKGRFTTSRDDSKNALYLQMNSLRAEDTAVYYCARGGPGWYAADVWGQGTTVTVSSASTKGPSVFPLAPSSKSTSGGTAALGCLVKDYFPEPVTVSWNSGALTSGVHTFPAVLQSSGLYSLSSVVTVPSSSLGTQTYICNVNHKPSNTKVDKKV[here human IgG1 Fc with changes without letters]GGGGSGGGGSGGGGSEVQLQESGPSLVKPSQTLSLTCSVTGDSITSGYWNWIRKFPGNKLEYMGYISYSGSTYYNPSLKGRVSITRDTSKNQYYLQLNSVTTEDTATYYCQRHVIYDYTWFAYWGQGTLVTVSAGGSEGKSSGSGSESKSTGGSQIVLTQSPAIMSASPGEKVTISCSASSSVGYMYWLQQKPGSSPKPWIYRTSILASGVPARFSGSGSGTSYSLTISSMEAEDAATYYCQQYQSYPLTFGAGTKLELK
# heavy 2: EVRLLESGGGLVQPGGSLRLSCAASGFTFSNYAMGWVRQAPGKGLEWVSAISGSGGSTYYADSVKGRFTTSRDDSKNALYLQMNSLRAEDTAVYYCARGGPGWYAADVWGQGTTVTVSS[here human IgG1 constant region with changes without letters]
# light: DIQMTQSPSSLSASVGDRVTITCRASQSISSYLNWYQQKPGKAPKLLIYAASSLQSGVPSRFSGSGSGTDFTLTISSLQPEDFATYYCQQADLPAFAFGGGTKVEIKRTVAAPSVFIFPPSDEQLKSGTASVVCLLNNFYPREAKVQWKVDNALQSGNSQESVTEQDSKDSTYSLSSTLTLSKADYEKHKVYACEVTHQGLSSPVTKSFNRGEC
# B2: CD98hc.04.065 (2+1 bispecific antibody) (bispecific antibody)
# heavy 1: EVRLLESGGGLVQPGGSLRLSCAASGFTFSNYAMGWVRQAPGKGLEWVSAISGSGGSTYYADSVKGRFTTSRDDSKNALYLQMNSLRAEDTAVYYCARGGPGWYAADVWGQGTTVTVSSASTKGPSVFPLAPSSKSTSGGTAALGCLVKDYFPEPVTVSWNSGALTSGVHTFPAVLQSSGLYSLSSVVTVPSSSLGTQTYICNVNHKPSNTKVDKKV[here human IgG1 Fc with changes without letters]GGGGSGGGGSGGGGSEVQLQESGPSLVKPSQTLSLTCSVTGDSITSGYWNWIRKFPGNKLEYMGYISYSGRTYYNPSLKSRVSITRDTSKNQYYLQLNSVTTEDTATYYCQRHVIYDYTWFAYWGQGTLVTVSAGGSEGKSSGSGSESKSTGGSQIVLTQSPAIMSASPGEKVTISCSASSSVHYMYWFQQKPGSSPKPWIYRTSILASGVPDRFSGSGSGTSYSLTISSMEAEDAATYYCQQYQSYPLTFGAGTKLELK
# heavy 2: EVRLLESGGGLVQPGGSLRLSCAASGFTFSNYAMGWVRQAPGKGLEWVSAISGSGGSTYYADSVKGRFTTSRDDSKNALYLQMNSLRAEDTAVYYCARGGPGWYAADVWGQGTTVTVSS[here human IgG1 constant region with changes without letters]
# light: B1 light
# Legend:
# [1] = target: T1, muCD98hc ECD Avi-His; test: ELISA, 1 ug/ml
# Experimental: (§1) To determine binding retention of reformatted 2+1 anti-CD98hc bispecific antibodies by ELISA, high binding ELISA plates (Thermo Fisher) were coated with streptavidin (1 μg/ml, Thermo Fisher) overnight at 4° C. Plates were then washed three times with phosphate buffered saline with 0.05% tween-20 (PBST) and incubated with block buffer (PBS+1% BSA, 1 h, room temperature). Plates were washed three times again with PBST and incubated with biotinylated human, cyno, and mouse CD98hc and an irrelevant antigen, human transferrin receptor (1 μg/ml, 1 h, room temperature). Plates were washed three times again with PBST and incubated with anti-CD98hc antibodies (1 μg/ml, 1 h, room temperature). Plates were washed three times again with PBST and incubated with a secondary detection antibody, anti-human horseradish peroxidase conjugated antibody (1:5000 dilution, 30 min, room temperature). Plates were washed three times one last time and incubated with TMB-ELISA Substrate Solution (Thermo Fisher) and then quenched with H₂SO₄. Anti-CD98hc binding was then analyzed by quantifying optical density at 450 nm (OD₄₅₀) using the SpectraMax M5 (Molecular Devices). The binding characteristics of the various 2+1 anti-CD98hc bispecific antibodies to CD98hc (human, cyno, mouse) and control human TfR are summarized below in Table 16, shown as fold-change relative to isotype hIgG.
# [2] = target: T3, Human TfR-AVI-His (control) (human, UniProt P02786); test: ELISA, 1 ug/ml
# T3 construct: control protein; also called Avi-His-tagged human TfR; human transferrin receptor
# T3 sequence (P02786 89-760 limits assumed): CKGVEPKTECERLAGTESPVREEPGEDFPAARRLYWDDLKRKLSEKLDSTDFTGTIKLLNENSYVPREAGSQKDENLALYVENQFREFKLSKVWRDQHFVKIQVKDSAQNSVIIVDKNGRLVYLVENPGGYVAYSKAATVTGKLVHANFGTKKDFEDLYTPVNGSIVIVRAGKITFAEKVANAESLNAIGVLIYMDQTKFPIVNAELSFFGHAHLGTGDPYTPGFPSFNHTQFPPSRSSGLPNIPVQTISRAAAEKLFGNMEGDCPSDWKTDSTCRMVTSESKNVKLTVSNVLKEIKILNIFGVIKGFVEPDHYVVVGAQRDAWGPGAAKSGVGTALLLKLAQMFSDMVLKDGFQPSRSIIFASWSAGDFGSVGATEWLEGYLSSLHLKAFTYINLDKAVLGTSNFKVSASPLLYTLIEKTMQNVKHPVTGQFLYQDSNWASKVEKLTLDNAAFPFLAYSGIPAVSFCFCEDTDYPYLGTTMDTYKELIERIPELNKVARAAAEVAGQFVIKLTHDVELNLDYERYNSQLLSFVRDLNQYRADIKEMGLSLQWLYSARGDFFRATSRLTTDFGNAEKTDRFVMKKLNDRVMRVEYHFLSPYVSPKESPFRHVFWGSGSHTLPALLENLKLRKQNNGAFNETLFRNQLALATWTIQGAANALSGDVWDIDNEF
# Experimental: as §1
# [3] = target: T2, Full length mouse CD98hc on CHO cells; test: FACS, 5 ug/ml
# Experimental: To determine binding retention of 2+1 anti-CD98hc bispecific antibodies by FACS, antibodies were evaluated for binding to HCMEC/D3 cells (a cell line derived from human brain endothelial cells), overexpressing human and mouse CD98hc CHO cell lines, and parental CHO cells for non-specific binding. Cells were seeded in tissue culture plates (50,000 cells/well) and washed and resuspended in FACS buffer (PBS+2% BSA+1 mM EDTA). The 2+1 anti-CD98hc bispecific antibodies were then incubated with cells (5 μg/ml, 1 hr, on ice) and washed twice with FACS buffer. Cells were then incubated with allophycocyanin conjugated anti-mouse secondary antibody (Jackson Immunoresearch) (1:1000, 30 min, on ice) and then washed twice with FACS buffer. Next, cells were resuspended in FACS buffer supplemented with 0.5% propidium iodide (Thermo Fisher). Anti-CD98hc binding was then analyzed on the iQue flow cytometer (IntelliCyt) by measuring the Mean Fluorescent Intensity (MFI). FACS data are summarized below in Table 17, shown as MFI fold-change relative to isotype hIgG1 control.
binder,measurement,setting,value
B1,ELISA fold-change relative to isotype hIgG,[1],1.3
same,ELISA fold-change relative to isotype hIgG,[2],1.3
same,MFI fold-change relative to isotype hIgG1,[3],0.6
B2,ELISA fold-change relative to isotype hIgG,[1],2
same,ELISA fold-change relative to isotype hIgG,[2],2
same,MFI fold-change relative to isotype hIgG1,[3],2.1
